Reference: the supplement of paper PMC8728848
Some of the results follow.

How the values were obtained:
Assay in all cases: glycan array binding signal (z-score within array); higher = stronger binding
Details in all cases: glycan notation: IUPAC condensed, linker removed
Gal3S6S(b1-4)GlcNAc = biological target: Gal3S6S(b1-4)GlcNAc
Summary of the method: (§1)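 Glycan array data came from 3228 arrays in the Consortium for Functional Glycomics database, and only arrays with an available protein sequence were kept. Glycan names were put into IUPAC-condensed notation, and columns mapping to the same glycan were averaged. The binding signal is a within-array Z-score, averaged across arrays of one protein sequence run at different concentrations or buffers and across linkers. A negative Z-score can be read as non-binding.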

Gal3S6S(b1-4)GlcNAc6S = biological target: Gal3S6S(b1-4)GlcNAc6S
Summary of the method: as §1

Gal4S(b1-4)GlcNAc = biological target: Gal4S(b1-4)GlcNAc
Summary of the method: as §1

Gal4S6S(b1-4)GlcNAc = biological target: Gal4S6S(b1-4)GlcNAc
Summary of the method: as §1

Gal6P(b1-4)GlcNAc = biological target: Gal6P(b1-4)GlcNAc
Summary of the method: as §1

Gal6S(b1-3)GlcNAc = biological target: Gal6S(b1-3)GlcNAc
Summary of the method: as §1

Gal6S(b1-3)GlcNAc6S = biological target: Gal6S(b1-3)GlcNAc6S
Summary of the method: as §1

Gal6S(b1-4)Glc = biological target: Gal6S(b1-4)Glc
Summary of the method: as §1

Gal6S(b1-4)Glc6S = biological target: Gal6S(b1-4)Glc6S
Summary of the method: as §1

Gal6S(b1-4)GlcNAc = biological target: Gal6S(b1-4)GlcNAc
Summary of the method: as §1

Gal6S(b1-4)GlcNAc6S = biological target: Gal6S(b1-4)GlcNAc6S
Summary of the method: as §1

GalNAc(a1-3)Gal = biological target: GalNAc(a1-3)Gal
Summary of the method: as §1

GalNAc(a1-3)GalNAc = biological target: GalNAc(a1-3)GalNAc
Summary of the method: as §1

[1] = biological target: GalNAc(a1-3)GalNAc(a1-3)Gal(a1-4)Gal(b1-4)GlcNAc
Summary of the method: as §1

[2] = biological target: GalNAc(a1-3)GalNAc(b1-3)Gal(a1-4)Gal(b1-4)Glc
Summary of the method: as §1

[3] = biological target: GalNAc(a1-3)GalNAc(b1-3)Gal(a1-4)Gal(b1-4)GlcNAc
Summary of the method: as §1

GalNAc(b1-3)Gal = biological target: GalNAc(b1-3)Gal
Summary of the method: as §1

[4] = biological target: GalNAc(b1-3)Gal(a1-4)Gal(b1-4)GlcNAc
Summary of the method: as §1

[5] = biological target: GalNAc(b1-3)Gal(a1-4)Gal(b1-4)GlcNAc(b1-3)Gal(b1-4)Glc
Summary of the method: as §1

[6] = biological target: GalNAc(b1-3)Gal(a1-6)Gal(b1-4)Glc
Summary of the method: as §1

GalNAc(b1-3)GalNAc = biological target: GalNAc(b1-3)GalNAc
Summary of the method: as §1

GalNAc(b1-3)GlcNAc = biological target: GalNAc(b1-3)GlcNAc
Summary of the method: as §1

GalNAc(b1-4)Gal(b1-4)Glc = biological target: GalNAc(b1-4)Gal(b1-4)Glc
Summary of the method: as §1

GalNAc(b1-4)GlcNAc = biological target: GalNAc(b1-4)GlcNAc
Summary of the method: as §1

[7] = biological target: GalNAc(b1-4)GlcNAc(b1-2)Man
Summary of the method: as §1

[8] = biological target: GalNAc(b1-4)GlcNAc(b1-2)Man(a1-3)[GalNAc(b1-4)GlcNAc(b1-2)Man(a1-6)]Man(b1-4)GlcNAc(b1-4)GlcNAc
Summary of the method: as §1

[9] = biological target: GalNAc(b1-4)GlcNAc(b1-3)GalNAc(b1-4)GlcNAc
Summary of the method: as §1

GalNAc(b1-4)GlcNAc6S = biological target: GalNAc(b1-4)GlcNAc6S
Summary of the method: as §1

GalNAc(b1-6)GalNAc = biological target: GalNAc(b1-6)GalNAc
Summary of the method: as §1

GalNAc3S(b1-4)GlcNAc = biological target: GalNAc3S(b1-4)GlcNAc
Summary of the method: as §1

GalNAc3S(b1-4)GlcNAc3S = biological target: GalNAc3S(b1-4)GlcNAc3S
Summary of the method: as §1

[10] = biological target: GalNAc3S(b1-4)[Fuc(a1-3)]GlcNAc
Summary of the method: as §1

GalNAc4S6S(b1-4)GlcNAc = biological target: GalNAc4S6S(b1-4)GlcNAc
Summary of the method: as §1

GalNAc6S(b1-4)GlcNAc = biological target: GalNAc6S(b1-4)GlcNAc
Summary of the method: as §1

Glc(a1-4)Glc = biological target: Glc(a1-4)Glc
Summary of the method: as §1

[11] = biological target: Glc(a1-4)Glc(a1-4)Glc(a1-4)Glc
Summary of the method: as §1

Glc(a1-6)Glc(a1-6)Glc = biological target: Glc(a1-6)Glc(a1-6)Glc
Summary of the method: as §1

[12] = biological target: Glc(a1-6)Glc(a1-6)Glc(a1-6)Glc
Summary of the method: as §1

Glc(b1-4)Glc = biological target: Glc(b1-4)Glc
Summary of the method: as §1

Glc(b1-6)Glc = biological target: Glc(b1-6)Glc
Summary of the method: as §1

GlcA(b1-3)Gal = biological target: GlcA(b1-3)Gal
Summary of the method: as §1

GlcA(b1-3)GlcNAc = biological target: GlcA(b1-3)GlcNAc
Summary of the method: as §1

GlcA(b1-6)Gal = biological target: GlcA(b1-6)Gal
Summary of the method: as §1

[13] = biological target: GlcA3S(b1-3)Gal(b1-4)GlcNAc(b1-2)Man
Summary of the method: as §1

[14] = biological target: GlcA3S(b1-3)Gal(b1-4)GlcNAc(b1-3)Gal(b1-4)Glc
Summary of the method: as §1

B1: SJA (Sophora japonica) (protein)
chain: FLGLFNSGGYSSSYQIVAVEFDTYINEWDPKTRHIGIDINSINSTKTVTWGWENGEVAIVLISYKAATETLTVSLTYPSSQTSYILSAAVDLKSILPEWVRIGF
Question: Which results are given for B1?
Answer: glycan array binding signal (z-score) (Gal3S6S(b1-4)GlcNAc): -0.222; glycan array binding signal (z-score) (Gal3S6S(b1-4)GlcNAc6S): -0.235; glycan array binding signal (z-score) (Gal4S(b1-4)GlcNAc): -0.218; glycan array binding signal (z-score) (Gal4S6S(b1-4)GlcNAc): -0.277; glycan array binding signal (z-score) (Gal6P(b1-4)GlcNAc): -0.461; glycan array binding signal (z-score) (Gal6S(b1-3)GlcNAc): -0.367; glycan array binding signal (z-score) (Gal6S(b1-3)GlcNAc6S): -0.256; glycan array binding signal (z-score) (Gal6S(b1-4)Glc): 0.051; glycan array binding signal (z-score) (Gal6S(b1-4)Glc6S): -0.345; glycan array binding signal (z-score) (Gal6S(b1-4)GlcNAc): -0.134; glycan array binding signal (z-score) (Gal6S(b1-4)GlcNAc6S): -0.243; glycan array binding signal (z-score) (GalNAc(a1-3)Gal): -0.062; glycan array binding signal (z-score) (GalNAc(a1-3)GalNAc): -0.201; glycan array binding signal (z-score) [1]: -0.244; glycan array binding signal (z-score) [2]: -0.355; glycan array binding signal (z-score) [3]: -0.341; glycan array binding signal (z-score) (GalNAc(b1-3)Gal): -0.054; glycan array binding signal (z-score) [4]: -0.186; glycan array binding signal (z-score) [5]: -0.154; glycan array binding signal (z-score) [6]: -0.181; glycan array binding signal (z-score) (GalNAc(b1-3)GalNAc): -0.123; glycan array binding signal (z-score) (GalNAc(b1-3)GlcNAc): -0.372; glycan array binding signal (z-score) (GalNAc(b1-4)Gal(b1-4)Glc): -0.031; glycan array binding signal (z-score) (GalNAc(b1-4)GlcNAc): 3.38; glycan array binding signal (z-score) [7]: 2.46; glycan array binding signal (z-score) [8]: 1.1; glycan array binding signal (z-score) [9]: 8.25; glycan array binding signal (z-score) (GalNAc(b1-4)GlcNAc6S): 3.05; glycan array binding signal (z-score) (GalNAc(b1-6)GalNAc): -0.388; glycan array binding signal (z-score) (GalNAc3S(b1-4)GlcNAc): -0.295; glycan array binding signal (z-score) (GalNAc3S(b1-4)GlcNAc3S): -0.378; glycan array binding signal (z-score) [10]: -0.303; glycan array binding signal (z-score) (GalNAc4S6S(b1-4)GlcNAc): -0.344; glycan array binding signal (z-score) (GalNAc6S(b1-4)GlcNAc): -0.254; glycan array binding signal (z-score) (Glc(a1-4)Glc): -0.112; glycan array binding signal (z-score) [11]: -0.043; glycan array binding signal (z-score) (Glc(a1-6)Glc(a1-6)Glc): -0.207; glycan array binding signal (z-score) [12]: -0.077; glycan array binding signal (z-score) (Glc(b1-4)Glc): 0.081; glycan array binding signal (z-score) (Glc(b1-6)Glc): 0.034; glycan array binding signal (z-score) (GlcA(b1-3)Gal): -0.116; glycan array binding signal (z-score) (GlcA(b1-3)GlcNAc): -0.363; glycan array binding signal (z-score) (GlcA(b1-6)Gal): -0.111; glycan array binding signal (z-score) [13]: -0.333; glycan array binding signal (z-score) [14]: -0.151
